# From PubChem BioAssay AID488969 (Vanderbilt High Throughput Screening Facility, 2010)
# In all, about 110,000 compounds were measured (“z-score”: median about -0.1, highest 2% from about 2 on). The list shows a part of the results. Calls of active or inactive are those of the source.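 The calls were made as follows: active = z-score in the third read window above 3 or below -3; inactive = the rest.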
# Target: Metabotropic glutamate receptor 8 (Rattus norvegicus) (UniProt P70579)
# Assay: rat mGluR8 modulators via GIRK flux, primary screen, cell-based, thallium flux, HTS (AID 488969)
# Settings: HEK293 rat mGluR8, GIRK (G protein-gated inwardly rectifying potassium channel) thallium flux, FluoZin2; at 10 µM; stronger effect = higher value; submaximal glutamate (EC20) added with thallium
# UniProt P70579, sequence (P70579 whole entry, looked up): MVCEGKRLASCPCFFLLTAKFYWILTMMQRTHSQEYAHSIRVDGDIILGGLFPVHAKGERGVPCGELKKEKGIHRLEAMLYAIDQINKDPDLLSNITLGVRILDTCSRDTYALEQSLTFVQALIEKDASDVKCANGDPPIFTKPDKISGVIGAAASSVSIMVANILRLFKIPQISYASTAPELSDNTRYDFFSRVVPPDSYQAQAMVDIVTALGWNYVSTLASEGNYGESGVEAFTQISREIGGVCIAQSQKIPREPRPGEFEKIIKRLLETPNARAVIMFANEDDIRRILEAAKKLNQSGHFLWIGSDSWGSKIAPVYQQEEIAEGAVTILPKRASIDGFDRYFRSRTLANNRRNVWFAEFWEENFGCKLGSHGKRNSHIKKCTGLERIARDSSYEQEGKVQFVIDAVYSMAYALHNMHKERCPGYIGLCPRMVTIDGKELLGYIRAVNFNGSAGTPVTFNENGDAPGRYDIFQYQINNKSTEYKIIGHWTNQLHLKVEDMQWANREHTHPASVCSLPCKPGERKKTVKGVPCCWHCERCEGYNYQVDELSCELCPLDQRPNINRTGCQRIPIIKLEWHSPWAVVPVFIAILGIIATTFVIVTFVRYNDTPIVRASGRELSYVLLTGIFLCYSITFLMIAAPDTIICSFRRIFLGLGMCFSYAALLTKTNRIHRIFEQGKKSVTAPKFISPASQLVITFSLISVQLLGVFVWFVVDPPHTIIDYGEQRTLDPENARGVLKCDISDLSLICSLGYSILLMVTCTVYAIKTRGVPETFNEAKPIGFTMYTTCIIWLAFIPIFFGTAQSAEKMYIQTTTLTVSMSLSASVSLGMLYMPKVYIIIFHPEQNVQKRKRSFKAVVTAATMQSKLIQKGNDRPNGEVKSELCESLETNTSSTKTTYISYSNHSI
row,Compound,z-score
1,C=CCn1c(SCC(=O)c2ccc(OC)cc2)nnc1C(C)NC(=O)c1cccs1 (stereo not given),-0.694
2,CC(=O)c1cn(CC(=O)Nc2c(C)cccc2C)c2ccccc12,0.782
3,COc1ccccc1/C=C(\NC(=O)c1ccc(OC)c(OC)c1)C(=O)Nc1cccc([N+](=O)[O-])c1,-0.431
4,CCOC(=O)c1c2n(c3c(NCc4ccccc4)ncnc13)CCCC2,active: -4.53
5,CCOC(=O)CC1C(=O)NCCN1C(=O)Nc1ccccc1 (stereo not given),-0.19
6,CCn1c(SCC(=O)c2ccc3ccccc3c2)nnc1-c1cccs1,-0.549
7,COc1ccccc1-n1c2c(cc(C(=O)N3CCC(C)CC3)c1=O)C(=O)CC(C)(C)C2,-0.717
8,Cc1cc(=O)n(C)c(=O)n1CCCCCCOc1cccc([N+](=O)[O-])c1,-0.884
9,COc1ccccc1N/C(=N/c1nc(C)cc(C)n1)NC(C)=O,-0.38
10,CCc1ccc2c(c1)C1(C(=O)N2)N2CCCC2C(C(=O)c2ccc3ccccc3c2)C12C(=O)Nc1ccccc12 (stereo not given),-0.276
11,CC(C)(C)c1nn(-c2ccccc2)c2[nH]c(=O)c(CNc3ccc4c(c3)OCCO4)cc12,0.265
12,O=[N+]([O-])c1ccc(N/N=C2/CCCCC2c2ccccn2)cc1 (stereo not given),-0.622
13,O=C(CSc1nnc(CNc2ccc(F)cc2)n1CC1CCCO1)Nc1ccccc1 (stereo not given),-0.477
14,CCOC(=O)C1CCN(C(c2cccnc2)c2c(NC(=O)c3ccco3)sc(C)c2C)CC1 (stereo not given),0.363
15,CC(=O)Nc1cccc(Oc2cnc3ccccc3n2)c1,-0.0332
16,CCn1c(CCCNC(=O)c2cccs2)nc2ccccc21,1.57
17,CCOC(=O)c1cncc(C(=O)O)c1,1.8
18,Cc1cc(NC(=O)CCC(=O)N(CC(=O)NC2CCCC2)Cc2ccc(F)cc2)no1,-0.327
19,COc1ccc(-c2cc3ccccc3oc2=O)cc1NC(=O)c1cccnc1,-0.208
20,CCOC(=O)c1ccc(CSc2ncn[nH]2)o1,0.192
21,COc1cc(Br)c(CCNC(=O)Cc2ccccc2)cc1OC,-0.198
22,Cc1cc(NS(=O)(=O)c2ccccc2)n(-c2ccccc2)n1,0.432
23,Cc1ccc(CNC(=O)C(=O)NCCCn2ccnc2)cc1,-0.281
24,Cc1[nH]c2ccccc2c1CN1CCc2ccccc2C1,active: 3.72

row,Compound,z-score
1,CN1CCN(NC(=O)CN2C(=O)/C(=C/c3ccccc3F)SC2=S)CC1,0.269
2,O=C1N[C@@H](Cc2ccccc2)C(=O)N1CCN1CCOCC1,-0.283
3,O=C(Nc1ccc2nsnc2c1)N1CCCCC1,0.0225
4,CCOC(=O)CSc1nnc(CSc2nc(C)cc(C)n2)n1Cc1ccco1,-0.181
5,Oc1ccccc1/C=N/Nc1cccc2cccnc12,-0.0637
6,Cc1cc(C)n(-c2nc(-c3cccc(Cl)c3)cs2)n1,-0.396
7,O=C(C1=C(O)C(=O)N(CCCN2CCOCC2)C1c1ccccn1)c1cc2ccccc2o1 (stereo not given),0.0916
8,CSCCC(NC(=O)COc1ccccc1)C(=O)Nc1ccc(C)cc1 (stereo not given),0.00859
9,CC(=O)Nc1c(C(=O)N2CCCCCC2)cnn1-c1ccccc1Cl,-0.0887
10,COc1ccc(NC(=O)c2cccc(Cn3cc(Br)cn3)c2)cn1,-0.191
11,CCOC(=O)c1sc(NC(=O)Nc2ccccc2F)nc1C,-0.263
12,CC(=O)NC(CC(=O)Nc1ccc(S(=O)(=O)N2CCCC2)cc1)c1ccccc1 (stereo not given),0.201
13,O=[N+]([O-])c1cccc(C(=Nc2cccc(Cl)c2)NO)c1,-0.172
14,Cc1ccc(-c2nc(NCc3cccnc3)c3ccccc3n2)cc1,-0.131
15,Cc1cc(C)nc(SC(C(=O)O)c2ccccc2)n1 (stereo not given),-0.17
16,CC1CC(C)(C)CC2(C1)NC(=O)N(CC(=O)NCCc1c[nH]c3ccccc13)C2=O (stereo not given),-0.065
17,Cc1ccc(S(=O)(=O)NNC(=O)c2ccccc2O)cc1,-0.0886
18,O=C(NCc1nnc(SCC(=O)N2CCCCCC2)o1)c1ccco1,-0.474
19,COC(=O)c1[nH]c2cccc(OC)c2c1NC(=O)CCN1CCN(c2cccc(Cl)c2)CC1,0.225
20,COc1ccc([C@@H]2Sc3cc(OC)ccc3N(CCN(C(C)C)C(C)C)C(=O)[C@H]2OC(C)=O)cc1,2.62
21,Cc1cc(C)nc(Nc2nc(=O)c3ccccc3s2)n1,1.6
22,O=C(Oc1ccc2c(c1)OCO2)c1cc2c(s1)CCC2,0.0193
23,COc1ccc(N(CC(=O)NC2CCCC2)C(=O)c2csnn2)cc1,0.193
24,Cc1ccc(CNc2ncc(-c3ccc4c(c3)OCO4)n2C)cc1,0.219

row,Compound,z-score
1,COc1ccc(-c2csc(C3=C(O)CN(Cc4ccc(Cl)cc4)C3=N)n2)cc1OC,-0.508
2,CCOCCSc1nnc2nc(C)cc(C)n12,0.142
3,COC(=O)C1=C(C)N(CCC2=CCCCC2)C(=O)C1,0.161
4,Cc1ccc(/C=C/C(=O)Nc2ccc([N+](=O)[O-])cc2)o1,-0.17
5,Cc1ccccc1/C=N/NC(=O)Cn1cnc([N+](=O)[O-])n1,-0.0421
6,O=S(=O)(c1ccc(S(=O)(=O)N2CCN(C/C=C/c3ccccc3)CC2)cc1)N1CCCC1,-0.122
7,Cc1ccc(NC(CNS(=O)(=O)c2ccc(Cl)cc2)c2ccccc2)cc1 (stereo not given),-0.0374
8,COC(=O)Cc1nc2ccccc2[nH]1,0.229
9,Cc1ccc(-c2nnn(CC(=O)N(CC(=O)NC3CCCC3)c3ccc(F)c(Cl)c3)n2)o1,0.164
10,CCSc1nc2c(c(=O)n1Cc1ccccc1)SC(C)C2 (stereo not given),-1.74
11,CCCOc1ccc(C2C(=O)N(C3CCCCC3)CC(=O)N2CCCOCC)cc1OC (stereo not given),0.34
12,Cn1nnc2cc(C(=O)N3CCSCC3)ccc21,-0.279
13,CCN1CCN(C(c2ccccc2)c2nnnn2CCc2ccc(OC)c(OC)c2)CC1 (stereo not given),0.256
14,S=c1nc(C2CC2)[nH]c2ccccc12,active: 9.36
15,COc1ccccc1-c1nc(C#N)c(N2CCN(c3cccc(Cl)c3)CC2)o1,-0.988
16,CC1CCN(CC(=O)N2c3ccccc3CCc3ccccc32)CC1,0.174
17,Cc1cc(Br)cc2c1NC(=O)C2(c1c(C)n(C)n(-c2ccccc2)c1=O)c1c(C)n(C)n(-c2ccccc2)c1=O,-0.413
18,N#CCCN(CCC#N)C(=O)c1ccc(Cl)cc1,0.32
19,CC(C)CSc1nc2c(=O)[nH][nH]c(=O)c2n1Cc1ccccc1,-1.71
20,Cn1c(NCCCO)nc2ccccc21,-1.34
21,CCCCCCC(=O)Nc1nc(C)c(-c2csc(Nc3cc(OC)ccc3OC)n2)s1,0.11
22,N/C(=N\OC(=O)Cc1ccc(-c2ccccc2)cc1)c1cccnc1,-0.00729
